Assay results taken from PubChem BioAssay AID686979 (National Center for Advancing Translational Sciences (NCATS), 2013).
Out of some 420,000 compounds screened, about 50,000 (12%) were called active. This list was built around the results that the source calls inconclusive (neither active nor inactive); the mix of calls is not that of the screen. Calls come from the whole dose curve; as a rule, active = well fitted inhibition curve with a large enough effect; inconclusive = small, poorly fitted or top-dose-only effect; inactive = flat fitted curve, though single readings scatter. No potency is given beside an inconclusive call; the fits are too rough.

Assay: qHTS for Inhibitors of human tyrosyl-DNA phosphodiesterase 1 (TDP1): qHTS in cells in presence of CPT; note: nearly all actives have a fitted effect of over 55% in size
Conditions: chicken DT40 Tdp1-/-;hTDP1 cells + 20 nM CPT, ATP luminescence, 48 h; activity change, negative = growth inhibition: at 46.2 µM (top of the series) unless noted
Procedure, shortened: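 Chicken DT40 Tdp1-/- cells stably complemented with human TDP1 were seeded at 400 cells/well in medium containing 20 nM camptothecin, exposed to pin-transferred compounds, and grown at 37 °C for at least 48 hr. Viability was read as ATP luminescence.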
% is set by controls: 0 for no effect and ±100 for the full control effect; potency is the fitted concentration of half-maximal effect; tags give direction and shape of the fitted curve.

Question: With `COc1ccc(-c2csc(C(C)(O)c3cccc(F)c3)n2)cc1` (centres undefined) as the compound, how does the Potency read?
Answer: Its Potency is active: 18.4 µM.

Question: Which activity change, negative = growth inhibition does the source give for `c1nc(Nc2ccc(N3CCOCC3)cc2)c2ccsc2n1` here?
Answer: The activity change, negative = growth inhibition was inconclusive: -34.1% [inhibitor].

Question: Which “activity change, negative = growth inhibition” value does the source give for `COCCn1c(SCc2ccc(OC)c(F)c2)nnc1-c1ccncc1` here?
Answer: The value was inactive: -2.3%.

Question: For `O=C(COc1ccccc1)NCC1CCCO1` (centres undefined), which “activity change, negative = growth inhibition” value is on record?
Answer: The value was inactive: 0.531%.

Question: With `CCN(CCCNC(=O)CCn1c(=S)[nH]c2cc3c(cc2c1=O)OCO3)c1cccc(C)c1` as the compound, how does the Potency read?
Answer: Its Potency is inconclusive [inhibitor, partial curve].

Question: Which “activity change, negative = growth inhibition” value does the source give for `COc1cc(N)c2ncccc2c1Br` here?
Answer: The value was inactive: -2.27%.

Question: For `COc1ccc(C(=O)NC(=S)Nc2ccccc2N2CCN(S(C)(=O)=O)CC2)cc1OC`, which Potency is on record?
Answer: The Potency was active: 12.6 µM.

Question: With `CCc1c(C)sc2c1CCN(C(=O)Nc1cc(Cl)c(OC)cc1OC)C2c1ccccc1` (centres undefined) as the compound, how does the Potency read?
Answer: The Potency was inconclusive [inhibitor, single point].

Question: With `CCC(=O)N1CCc2cc(CNS(=O)(=O)c3ccc(NC(=O)CC(C)C)cc3)ccc21` as the compound, how does the Potency read?
Answer: The Potency was active: 20.6 µM.

Question: Which “activity change, negative = growth inhibition” value does the source give for `c1coc(-c2nn3c(Cn4nnc5ccccc54)nnc3s2)c1` here?
Answer: The value was inactive: -29.1%.

Question: Which Potency does the source give for `Cc1ccc(C2(C)NC(=O)N(CC(=O)NC(C)c3ccccc3)C2=O)cc1` (centres undefined) here?
Answer: Its Potency is inconclusive [inhibitor, full curve, poor fit].

Question: For `CCCCn1c(O)c(N=Nc2ccccn2)c2ccccc21`, which Potency is on record?
Answer: Its Potency is inconclusive [inhibitor, single point].

Question: Which “activity change, negative = growth inhibition” value does the source give for `Clc1ccc(/C=N/Nc2nn[nH]n2)cc1` here?
Answer: Its value is inactive: 0.202%.

Question: For `Cc1ccc(C(=O)NCC(=O)Nc2ccncc2)cc1`, which Potency is on record?
Answer: The Potency was inconclusive [inhibitor, single point].

Question: With `O=C(C1=C[C@H](c2csc3ccccc23)C[C@H](OCc2ccc(CO)cc2)O1)N1CCOCC1` as the compound, how does the Potency read?
Answer: Its Potency is inconclusive [inhibitor, single point].

Question: With `COc1ccc(OCc2nc3c4c(ncn3n2)-c2ccccc2CC42CCCC2)cc1` as the compound, how does the Potency read?
Answer: Its Potency is inconclusive [inhibitor, single point].

Question: Which “activity change, negative = growth inhibition” value does the source give for `O=c1[nH]cc(S(=O)(=O)N2CCN(c3ccc(F)cc3)CC2)c(=O)[nH]1` here?
Answer: Its value is inactive: -9.42%.

Question: For `COC(=O)Cn1c(=O)c2c(nc(Br)n2Cc2ccccc2Cl)n(C)c1=O`, which Potency is on record?
Answer: Its Potency is inconclusive [inhibitor, single point].

Question: Which “activity change, negative = growth inhibition” value does the source give for `COc1ccc(CN2C(=O)NC3(CCCC3)C2=O)cc1F` here?
Answer: The value was inactive: 23.1%.

Question: Which “activity change, negative = growth inhibition” value does the source give for `CN(CC(=O)Nc1ccccc1Cl)C(=O)CSc1ncc(C(F)(F)F)cc1Cl` here?
Answer: The value was inactive: -7.55%.

Question: With `O=C(CCNC(=O)c1ccc(Br)cc1)OCc1ccccc1Cl` as the compound, how does the “activity change, negative = growth inhibition” value read?
Answer: Its value is inactive: 26.7%.

Question: Which Potency does the source give for `CCn1c(C)c(C)c2cc(C(=O)NCc3ccc(OC)cc3OC)ccc21` here?
Answer: Its Potency is active: 18.4 µM.

Question: For `CC(C)NC(=O)c1cc2cc([N+](=O)[O-])ccc2s1`, which Potency is on record?
Answer: Its Potency is inconclusive [inhibitor, partial curve].

Question: With `COc1ccc(C2CC3(CC(C)(C)NC(=S)N3)Oc3cc(O)cc(C)c32)cc1` (centres undefined) as the compound, how does the Potency read?
Answer: Its Potency is active: 9.2 µM.

Question: With `COc1ccc(N(CC(=O)Nc2ccccc2F)S(=O)(=O)c2ccc(C)c([N+](=O)[O-])c2)cc1` as the compound, how does the Potency read?
Answer: The Potency was inconclusive [inhibitor, single point].

Question: With `O=[N+]([O-])c1cc(Br)c(Nc2ccccc2)c([N+](=O)[O-])c1` as the compound, how does the Potency read?
Answer: The Potency was active: 0.82 µM.

Question: For `COCCC(=O)N1CCC(Oc2ccc(C(=O)N(C)C(C)c3ccon3)cc2)CC1` (centres undefined), which Potency is on record?
Answer: The Potency was inconclusive [inhibitor, single point].

Question: For `O=C(c1cc(COc2ccc(F)cc2Cl)on1)N1C[C@H]2CC[C@H]1C2`, which Potency is on record?
Answer: Its Potency is inconclusive [inhibitor, single point].

Question: Which Potency does the source give for `CCOC(=O)C1=CCN(S(=O)(=O)c2ccccc2Cl)C1c1cccc(Cl)c1` (centres undefined) here?
Answer: The Potency was inconclusive [inhibitor, single point].

Question: For `O=C(O)c1ccc2c(=O)n3c(nc2c1)/C(=C/c1ccc(Cl)c(Cl)c1)CC3`, which “activity change, negative = growth inhibition” value is on record?
Answer: The value was inactive: -5.03%.

Question: With `Fc1ccccc1-c1nc2ccccc2[nH]1` as the compound, how does the “activity change, negative = growth inhibition” value read?
Answer: Its value is inactive: -5.96%.

Question: With `CCCS(=O)(=O)N1CCC(C(=O)c2cccc(C(F)(F)F)c2)CC1` as the compound, how does the Potency read?
Answer: Its Potency is inconclusive [inhibitor, partial curve, poor fit].

Question: For `N#Cc1ccc(OCC(=O)OCC(=O)NC2CC2)cc1`, which “activity change, negative = growth inhibition” value is on record?
Answer: Its value is inactive: 1.83%.

Question: With `C=C1CCC[C@]2(C)C[C@H]3OC(=O)C(CN4CCCCC4CO)[C@H]3CC12` (some centres undefined) as the compound, how does the Potency read?
Answer: The Potency was active: 4.61 µM.

Question: Which “activity change, negative = growth inhibition” value does the source give for `CCOC(=O)/C(=C/c1ccco1)NC(=O)c1ccc(Br)o1` here?
Answer: Its value is inactive: 11.2%.

Question: For `Cc1ccc(-c2nnc(Nc3ccc(OCC(N)=O)cc3)c3ccccc23)cc1S(=O)(=O)N(C)C`, which Potency is on record?
Answer: The Potency was inconclusive [inhibitor, single point].

Question: With `CCC(=O)Nc1ccccc1C(=O)OCC(=O)c1ccc2ccccc2c1` as the compound, how does the Potency read?
Answer: The Potency was inconclusive [inhibitor, single point].

Question: With `Cc1nc(/N=C\N(C)C)sc1C(=O)Nc1ccccc1` as the compound, how does the activity change, negative = growth inhibition read?
Answer: The activity change, negative = growth inhibition was inconclusive: -31.4% [inhibitor].

Question: With `CN(C)S(=O)(=O)c1cccc(N=C2NN=C(c3ccccc3)CS2)c1` as the compound, how does the Potency read?
Answer: Its Potency is active: 18.4 µM.

Question: For `C=CCn1c(COc2cccc3cccnc23)nnc1SCC(=O)O`, which “activity change, negative = growth inhibition” value is on record?
Answer: The value was inactive: 11.3%.

Question: Which “activity change, negative = growth inhibition” value does the source give for `COC(=O)C(c1ccccc1)C1(O)CC(C)N(C)CC1C` (centres undefined) here?
Answer: The value was inactive: 12.9%.

Question: For `COc1cc(C(=O)NC2CC(C)(C)CC(C)(C)C2)ccc1OC1CCN(C(C)=O)CC1`, which Potency is on record?
Answer: The Potency was inconclusive [inhibitor, partial curve].

Question: Which Potency does the source give for `C=CCn1c(COc2ccccc2)nc2ccccc21` here?
Answer: Its Potency is inconclusive [inhibitor, single point].

Question: Which “activity change, negative = growth inhibition” value does the source give for `CCOC(=O)N/N=C(C)/C=C/c1ccco1` here?
Answer: Its value is inactive: 12.3%.

Question: For `O=C(COC(=O)c1ccccc1NS(=O)(=O)c1cccs1)NCC12CC3CC(CC(C3)C1)C2`, which Potency is on record?
Answer: The Potency was inconclusive [inhibitor, single point].

Question: For `CC(C)(C)c1ccc(C(=O)C2CCCN(C(=O)CN3CCCC3=O)C2)cc1` (centres undefined), which Potency is on record?
Answer: Its Potency is inconclusive [inhibitor, single point].

Question: For `CC(C)[C@H](NC(=O)[C@@H]1CSC2c3ccccc3C(=O)N21)C(=O)NC1CCCCC1` (some centres undefined), which Potency is on record?
Answer: Its Potency is inconclusive [inhibitor, single point].

Question: Which “activity change, negative = growth inhibition” value does the source give for `CCOC(=O)C1CCN(C(=O)CS(=O)(=O)Cc2nc(-c3ccccc3Cl)oc2C)CC1` here?
Answer: Its value is inactive: -17.9%.

Question: Which “activity change, negative = growth inhibition” value does the source give for `COc1ccc(NC(=O)c2c(F)cccc2Cl)cc1S(=O)(=O)N1CCOCC1` here?
Answer: Its value is inactive: 0.718%.
